# Source: patent publication US20240076406A1, “SINGLE DOMAIN ANTIBODIES TARGETING CA-IX AS WELL AS COMPOSITIONS COMPRISING SAME” (National Research Council of Canada, priority 2021, published 2024)
# B1: sdCA9-1-VHH CAR: single binder chimeric antigen receptor construct with sdCA9-1-VHH antigen binding domain, SEQ ID NO: 37 (protein)
# chain: MLRLLLALNLFPSIQVTGQVQLVESGGGLVQAGGSLRLSCAASGFTFDDWAIGWFRQAPGKEREGVSCISKRHGTTHYADSVKGRFTISSDNAKNTVYLRMNGLKPEDTAVYYCAASSWGSCTVATMRDVDRYDYDYWGQGTQVTVSSPSGGGGPSTTTPAPRPPTPAPTIASQPLSLRPEACRPAAGGAVHTRGLDFACDPSKPFWVLVVVGGVLACYSLLVTVAFIIFWVRKRGRKKLLYIFKQPFMRPVQTTQEEDGCSCRFPEEEEGGCELL[no letters for about 120 residues]
# modifications: sdCA9-1-VHH CAR amino acid sequence, exemplary sequence for a single binder CAR construct
# B2: sdCA9-2-Fc: sdCA9-2-VHH in-frame fusion with human IgG1-Fc, SEQ ID NO: 17 (protein)
# chain: EFATMEFGLSWVFLVAILKGVQCQVKLEESGGDLVQPGGSLRLSCAASGFTLDYYAIGWFRQAPGKEREGVSCFSSVDGSTYYADSVKGRFTISRDNAKNMVYLQMNSLKPEDTAIYYCAAELYGELGVATVQAMCRLTTPGGDYWGQGTQVTVSSA[no letters for human IgG1 Fc]
# modifications: Leader-sdCA9-2-VHH-Linker-hIgG1Fc
# B3: sdCA9-1-Fc: sdCA9-1-VHH in-frame fusion with human IgG1-Fc, SEQ ID NO: 16 (protein)
# chain: EFATMEFGLSWVFLVAILKGVQCQVQLVESGGGLVQAGGSLRLSCAASGFTFDDWAIGWFRQAPGKEREGVSCISKRHGTTHYADSVKGRFTISSDNAKNTVYLRMNGLKPEDTAVYYCAASSWGSCTVATMRDVDRYDYDYWGQGTQVTVSSA[no letters for human IgG1 Fc]
# modifications: Leader-sdCA9-1-VHH-Linker-hIgG1Fc
# How the values were obtained:
# [1] = tested on: CAIX expressing SKRC52 target cells; assay: In vitro CAR-Jurkat (CAR-J) assay, CAIX-positive target cells; format: cell-based, human; conditions: Jurkat cells electroporated with CAR plasmid, co-culture with SKRC52; flow cytometry; CD19-CAR control
# Protocol: FIG. 13 Depicts the results of CAR-Jurkat activity assay wherein Jurkat cells were transiently electroporated with sdCA9-1-VHH, sdCA9-2-VHH CAR or an irrelevant target CD19 CAR plasmid as a control and cultured either alone or in co-culture with CAIX-positive (SKRC52 cell line) or CAIX-negative (SKOV3) cell lines. The level of T cell activation was measured using human CD69-specific antibody staining and flow cytometry. Graphs depict the mean fluorescent intensity for CD69-staining for each single domain antibody targeted CAR constructs performed in a single experiment in duplicate, either in culture with no target cells (first bar), CAIX negative SKOV3 target cells (second bar), or CAIX positive SKRC52 target cells (third bar). Error bars show the standard error of the mean for duplicate wells.
# In vitro CAR-Jurkat (CAR-J) assay: CAIX-targeting CAR constructs were then tested for activity in an immortalized human T cell line (Jurkat) as described in Bloemberg et al., 2020. In brief, plasmids were electroporated into Jurkat T cells and allowed to recover for several hours. […] In order to measure CAR-mediated Jurkat cell activation, expression of CD69 was measured using specific antibody staining and flow cytometry. Using expression of GFP-marker to gate CAR-expressing cells, the level of T cell activation was determined using the CD69-surface marker. […]
# [2] = tested on: SKRC59 and SKRC52 cell lines (low and high levels of hCA-IX); assay: Cell binding assay, plate format; format: cell-based, human; conditions: mean fluorescent intensity per cell area; cell line of Table 3 not stated
# Protocol: Cell binding assays were performed using a plate-based format, binding was expressed as the mean fluorescent intensity per cell area. (control IgG (●), cG250 (▪), sdCA9-1-Fc (▴), and sdCA9-2-Fc (▾)). KD values were determined by plotting fluorescent intensity measured for each condition of the sdCA9-Fc antibodies using Graphpad Prism. cG250 full sized antibody (FSA) and isotype matching IgG FSA were used as bench mark and negative control, respectively.
# Cell binding. […] These cell lines have been used in the literature for the screening of scFv Abs for binding to hCA-IX (Xu et al. 2010). KD values were determined to be in the low nanomolar range, the clinically used cG250 full sized antibody (FSA) was used as a bench mark. An isotype matching hIgG was used as negative control (FIG. 5).
Molecule,"T cell activation, CD69 fluorescent intensity [1]","Bmax (best-fit value, one site specific binding) [2]"
B1,CAIX-specific response,–
B2,–,311.9
B3,–,264.7
